About 400 (5.1%) of roughly 7,900 compounds showed an effect of 50% or more. Some of the results follow.

Chain of Parkinson's disease protein 7 (PARK7/DJ1) (Q99497 whole entry, looked up, the tested form may be a part): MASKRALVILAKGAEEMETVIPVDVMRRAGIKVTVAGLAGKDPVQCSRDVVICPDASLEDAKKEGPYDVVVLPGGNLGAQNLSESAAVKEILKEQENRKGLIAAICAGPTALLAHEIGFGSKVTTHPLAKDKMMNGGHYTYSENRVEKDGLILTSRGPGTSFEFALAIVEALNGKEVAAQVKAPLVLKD

The experiment addresses Parkinson's disease protein 7 (PARK7/DJ1) (human, UniProt Q99497). In words: primary screen, percent inhibition; read as competition with a fluorescent probe by fluorescence polarization; higher = more effect of the substance. To be noted: 100 µM. How it is done:
The screen was conducted using the conditions as described above in 1536-well plates (Corning 3724) with a reaction volume of 8 μL per well. The compound library containing 7887 covalent fragments was purchased at Enamine Ltd. and received as 100 mM DMSO stocks in 384 well LDV Echo plates (Labcyte LP-0200). Stock solutions of 0.26 μM PARK7 and 80 nM JYQ-107 were prepared. Using a Labcyte Echo550 acoustic dispenser, 8 nL of the DMSO stock solution of the library compounds was transferred from the source plates into the empty 1536-well screening plates to obtain a 100 μM final compound concentration. Next, PARK7 (6 μL, final concentration 0.2 μM) was dispensed using a Biotek MultiflowFX liquid dispenser and incubated for 2 h, followed by dispensing the probe JYQ-107 (2 μL, final concentration 20 nM). After 2 h incubation, the FP signal was recorded on a BMG Labtech PHERAstar plate reader (λex/em 480/520 nm). The relative loss of FP signal compared with reference controls was used to calculate the remaining enzyme activity.
Take `O=S(=O)(F)c1ccc(S(=O)(=O)NC2CCCC(O)C2)cc1` (centres unmarked): the Inhibition % turned out to be 21.4%.
For the compound `C=CC(=O)N(Cc1cccnc1)Cc1ccsc1`, the Inhibition % is 14.7%.
Turning to `N#Cc1ncn(Cc2cccc(F)c2F)n1`, the Inhibition % was determined as 3.23%.
On to `O=C(CCl)NC(=O)c1ccc[nH]1`, for which the Inhibition % is reported as 26%.
The same measure for `C=CC(=O)N1CCCc2cc(OC)ccc2C1`: 4.79%; for `O=C(CCl)NCC1Cc2ccccc2O1` (centres unmarked): 26.5%; for `CN(C(=O)CCCl)c1ccccc1`: 9.16%.
In the case of `O=C(NC1CN(c2ccccc2)C1=O)c1ccnc(F)c1` (centres unmarked), the Inhibition % was 3.78%.
Consider `Cc1ccc(S(=O)(=O)OCC(F)(F)F)cc1C(N)=O`, for which the Inhibition % is given as 7.17%.
As to `Cc1noc(C)c1S(=O)(=O)Oc1cccc2c1CCC2=O`, the Inhibition % stood at 12.8%.
The result for `C=CC(=O)NCc1cc2ccccc2s1` reads 13.3%.
As to `CC1(C)OB(c2ccc3c(c2)COC(=O)N3)OC1(C)C`, the Inhibition % is recorded as 3.95%.
The result for `Cc1ccc(C)c(S(=O)(=O)CCCl)c1` reads 2.68%; that for `N#Cc1ncn(CCOc2c(Cl)cccc2Cl)n1`, 5.66%.
Take `CC1(C)OB(c2cccc(-c3ncc[nH]3)c2)OC1(C)C`: the Inhibition % turned out to be 0.986%.
The result for `CC1(C)OB(c2ccc(-c3cn[nH]c3)cc2)OC1(C)C` reads 0.918%; that for `Clc1cccc(Cl)c1OCC1CO1` (centres unmarked), 9.6%; that for `C=CC(=O)N1CCc2ccsc2C1C` (centres unmarked), 5.26%.
Consider `C=CC(=O)NCC1CC(=O)N(C)C1` (centres unmarked), for which the Inhibition % is listed as -0.151%.
The result for `O=C(O)C1CCN(S(=O)(=O)C=Cc2ccccc2)C1` (centres unmarked) reads 10.3%; that for `C=CC(=O)N1CCN(C)CC1C#N` (centres unmarked), 24.7%.
The result for `Cc1ccn(S(=O)(=O)c2ccc(Cl)c(Cl)c2)n1` reads 8.29%.
The same measure for `Cc1oncc1Cn1c(-c2ccncc2)noc1=O`: 59.3%; for `O=C(CCl)N1CCOC1=O`: 31.6%; for `C=CC(=O)N1CC(CC#N)C1`: 7.7%.
`C=CC(=O)Nc1nc2cc3c(cc2s1)OCCO3`: the Inhibition % was found to be 1.49%.
As for `Cc1ccc(NC(=O)NC(=O)CCl)cc1`, the Inhibition % came out at 8.73%.
The same measure for `N#Cc1ccc(N2CCCC2C(=O)NC2CC2)cn1` (centres unmarked): 8.87%; for `O=C(CCl)NCC1CN(Cc2ccccc2)CCO1` (centres unmarked): 27.2%; for `CC(C)NC(=O)c1ccccc1NC(=O)CCl`: 2.5%.
In the case of `Cc1oc(C(=O)O)cc1C(=O)CCl`, the Inhibition % was found to be 92.2%.
The result for `O=c1[nH]nc(-c2ccco2)o1` reads 50.5%; that for `N#CNC(=O)c1ccccc1Cl`, 5.75%.
On to `Cc1cnccc1CCNC(=O)c1cccnc1S`, for which the Inhibition % worked out at 4.25%.
The same measure for `O=c1[nH]nc(S)n2cccc12`: 26.7%.

For the origin of these results see paper PMC9574860, “Chemical Toolkit for PARK7: Potent, Selective, and High-Throughput” (Journal of Medicinal Chemistry, 2022).
